According to publication PMC3271066:
Where a chain is given by its changes, count along the chain named. Names may count otherwise. These are yes or no findings as the source states them, for the method shown. For part of these data: Binding seen in cells or lysates may run through a third protein. Some entries that bind do so weakly or less than the wild type. Tags and fused reporters may be left off the sequences shown. Blank lines part the entries; values can stand above or below the binder they belong to.

How the values were obtained:
[1] = target: T1, Raf2-TAP (S. pombe), O74560; test: co-IP; TAP-tagged bait on Dynabeads coupled to IgG, S. pombe lysate (50 mM Hepes pH7.5, 150 mM KCl, 0.1% NP40), Western with anti-FLAG; raf1-1 panel from cells grown at 36°C; conditions: remark: other sources report otherwise
T1 chain: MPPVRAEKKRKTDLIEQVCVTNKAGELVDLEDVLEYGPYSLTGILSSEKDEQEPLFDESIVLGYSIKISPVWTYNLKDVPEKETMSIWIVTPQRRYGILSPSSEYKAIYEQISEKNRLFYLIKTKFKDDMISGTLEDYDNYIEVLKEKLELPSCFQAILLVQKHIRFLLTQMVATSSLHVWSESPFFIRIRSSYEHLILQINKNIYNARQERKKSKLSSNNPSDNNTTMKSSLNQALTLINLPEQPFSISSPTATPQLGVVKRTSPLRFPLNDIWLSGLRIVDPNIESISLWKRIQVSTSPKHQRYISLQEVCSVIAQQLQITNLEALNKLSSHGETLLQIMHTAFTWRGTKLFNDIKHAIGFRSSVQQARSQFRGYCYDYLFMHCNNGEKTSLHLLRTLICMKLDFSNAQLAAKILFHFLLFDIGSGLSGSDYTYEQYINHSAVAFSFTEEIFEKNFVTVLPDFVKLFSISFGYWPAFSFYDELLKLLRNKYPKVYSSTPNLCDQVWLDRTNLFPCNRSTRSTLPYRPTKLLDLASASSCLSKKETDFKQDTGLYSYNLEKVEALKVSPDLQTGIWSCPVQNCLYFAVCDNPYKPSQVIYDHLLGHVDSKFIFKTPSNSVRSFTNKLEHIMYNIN

Raf2-TAP (S. pombe) = target: T2, Raf2-TAP (S. pombe) (UniProt O74560); test: as above
T2 sequence: T1 chain

[2] = target: T3, Rik1 (two-hybrid fusion) (S. pombe) (UniProt Q10426); test: two-hybrid; yeast two-hybrid, GAL4 Binding and Activation Domain fusions, growth on -Leu, -Trp, -His, -Ade plates
T3 sequence: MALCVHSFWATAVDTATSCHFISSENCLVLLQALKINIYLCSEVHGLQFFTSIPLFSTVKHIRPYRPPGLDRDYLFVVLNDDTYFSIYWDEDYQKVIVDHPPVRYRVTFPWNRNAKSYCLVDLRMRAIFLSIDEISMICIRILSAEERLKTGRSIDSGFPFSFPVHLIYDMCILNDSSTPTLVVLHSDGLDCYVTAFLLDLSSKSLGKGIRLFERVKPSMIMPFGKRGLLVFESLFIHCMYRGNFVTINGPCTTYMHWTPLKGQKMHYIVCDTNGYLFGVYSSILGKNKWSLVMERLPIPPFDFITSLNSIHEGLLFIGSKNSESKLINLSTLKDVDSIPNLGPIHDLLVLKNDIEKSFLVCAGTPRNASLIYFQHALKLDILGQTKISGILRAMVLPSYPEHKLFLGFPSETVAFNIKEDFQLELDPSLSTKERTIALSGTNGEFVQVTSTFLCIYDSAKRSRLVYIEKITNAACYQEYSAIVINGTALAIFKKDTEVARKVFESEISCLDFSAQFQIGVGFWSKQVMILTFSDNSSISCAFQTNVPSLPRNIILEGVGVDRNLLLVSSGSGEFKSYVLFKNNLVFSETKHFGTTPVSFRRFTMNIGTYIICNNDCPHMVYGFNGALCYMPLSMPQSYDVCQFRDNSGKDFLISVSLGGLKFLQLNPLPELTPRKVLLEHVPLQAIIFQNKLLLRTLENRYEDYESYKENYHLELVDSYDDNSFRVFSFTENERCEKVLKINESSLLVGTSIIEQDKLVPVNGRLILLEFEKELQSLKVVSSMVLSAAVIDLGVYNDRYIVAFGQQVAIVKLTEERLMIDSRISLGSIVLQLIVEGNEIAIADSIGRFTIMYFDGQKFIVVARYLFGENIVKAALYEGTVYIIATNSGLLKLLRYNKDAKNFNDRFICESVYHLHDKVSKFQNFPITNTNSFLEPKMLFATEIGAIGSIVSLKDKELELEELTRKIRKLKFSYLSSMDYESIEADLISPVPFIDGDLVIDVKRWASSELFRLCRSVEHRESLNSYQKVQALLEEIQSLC

FLAG-Raf1 (S. pombe) = target: T4, FLAG-Raf1 (S. pombe) (UniProt O74910); test: co-IP; anti-FLAG M2 on proteinG Dynabeads, 1 hr, S. pombe lysate (50 mM Hepes pH7.5, 150 mM KCl, 0.1% NP40), four washes, Western with anti-FLAG and anti-myc; raf1-1 panels and their wild type from cells grown at 36°C
T4 sequence: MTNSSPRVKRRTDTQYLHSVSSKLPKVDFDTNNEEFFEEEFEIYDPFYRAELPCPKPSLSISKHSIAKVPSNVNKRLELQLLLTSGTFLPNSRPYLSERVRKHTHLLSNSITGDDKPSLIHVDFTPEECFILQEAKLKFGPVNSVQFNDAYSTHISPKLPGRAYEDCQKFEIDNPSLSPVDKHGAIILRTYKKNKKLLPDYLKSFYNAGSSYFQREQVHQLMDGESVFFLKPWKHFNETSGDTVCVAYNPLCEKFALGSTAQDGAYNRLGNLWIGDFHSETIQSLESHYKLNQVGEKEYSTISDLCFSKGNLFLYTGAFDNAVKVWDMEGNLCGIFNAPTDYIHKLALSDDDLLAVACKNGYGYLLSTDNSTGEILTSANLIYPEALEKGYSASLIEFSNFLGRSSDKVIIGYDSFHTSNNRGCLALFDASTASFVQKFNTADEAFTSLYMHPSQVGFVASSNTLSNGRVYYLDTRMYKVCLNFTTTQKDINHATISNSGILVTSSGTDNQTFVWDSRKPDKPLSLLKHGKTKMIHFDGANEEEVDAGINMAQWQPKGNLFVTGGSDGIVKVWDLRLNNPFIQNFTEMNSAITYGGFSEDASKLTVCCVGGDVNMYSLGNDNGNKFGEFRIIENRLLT

B1: FLAG-Raf1, O74910 1-638 (protein)
chain: T4 sequence
- binding [1]: binds

B2: FLAG-Raf1-1 (protein, UniProt O74910 1-638)
chain: T4 sequence with T495I
- binding (Raf2-TAP (S. pombe)): binds weakly

B4: FLAG-Raf1-R518A (protein, UniProt O74910 1-638)
chain: T4 sequence with R518A
- binding (Raf2-TAP (S. pombe)): binds weakly

The next lines start with the values.

- binding (Raf2-TAP (S. pombe)): no binding
B3: FLAG-Raf1-R576A (protein, UniProt O74910 1-638)
chain: T4 sequence with R576A

- binding [2]: binds
B5: Raf1 (two-hybrid fusion) (protein, UniProt O74910 1-638)
chain: T4 sequence

- binding (FLAG-Raf1 (S. pombe)): binds
B6: Rik1-Myc (protein, UniProt Q10426 1-1040)
chain: T3 sequence
